# Some of the results follow.
# Test system: PfAP2-HC AP2 domain (GST-tagged)
# Assay: gcPBM binding intensity (ln(normalized median fluorescence intensity)); higher = stronger DNA binding
# Procedure, shortened: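 Binding intensity is defined as the maximum Masliner-normalised natural-log median intensity across replicate spots for either probe orientation. It was measured on an Agilent 4 × 180k array of primer-extended double-stranded 36-bp intergenic genomic probes and negative controls, to which GST-tagged P. falciparum DNA-binding domains made in E. coli were applied for 1 h in 1× PBS with 1% milk, 0.2 mg/ml BSA, 0.5% salmon testes DNA and 0.03% Triton X-100. Detection was by Alexa488 anti-GST antibody and scanning at 488 nm.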
row,Sequence,gcPBM binding intensity (ln)
1,CATATATAAAAAAACACACACATATATATATATATA [CACACA_site1195],10.2
2,ACATAAATATAAACGTGTACATATATAAATATATAT [XGTACX_site7293],9.92
3,AAAATTAAACTCACACCACACACAAAAAAAAAAAAA [CACACA_site8131],10.6
4,AAGAAAGACATTACGTGTACCAAACAACCTACCAAC [XGTACX_site4219],9.94
5,ATGTATATGTCTATATGTACTTATATTTTATTTTTT [XGTACX_site5902],9.83
6,TGTTTTATCTTATATGCACACGATAAAAAAAAAAAA [CACACA_site2674],9.49
7,TTACAAGTAAAAGGTACACACATTATAAATACAAAT [CACACA_site4752],9.98
8,CATTATTCATTTTGGATGCACTGACAGAAAAATGGT,9.5
9,ATGCTCAGGAAAACATGTACAAAATTATTTGTTATA [XGTACX_site4306],9.56
10,TGAGTACACAATAATACATGCAATTCCTATGAATAT [TGCATGCA_site851],9.62
11,ATATGACATAAAACATGTACATGTTCATAAATATAT [XGTACX_site1923],9.85
12,ATTTACATAATAAAATGTACATTTATAAATATTATA [XGTACX_site1901],9.64
13,TACACTTTTTATGAAGTGCATGTATAGCTCTTAAAA [GTGCAC_site9595],9.34
14,TTTTGTGCTTAAAAAAGTACAAAATATAAAAAAAAT [XGTACX_site7876],9.41
15,TGCAGTCTGGAGAAACGTACACAGTATCTGGTAACC [XGTACX_site2543],9.58
16,CCCACAGACGGACACACACACACACCGACACATATA [CACACA_site4356],11
17,AAAATTGAACCTGACAAGGTATTTTATTATTTATTA [TGCATGCA_negctrl_site181],9.44
18,TTCTATTTTAATATCTGTACATAATAAAGATCCATT [XGTACX_site1142],9.47
19,AGTTTTTATAAAAATAGTACATATTTATTAATCTGT [XGTACX_site5881],9.59

row,Sequence,gcPBM binding intensity (ln)
1,CTTTTTCTTTTCCGGCGTACAGACTTAGTAGTAGAT [XGTACX_site2268],9.48
2,TACATGCAAAAAATTCCACACACACCCCCACATATA [CACACA_site8329],10.3
3,TAAAATATAGGAAATACATGCATATTAAATATTCCT [TGCATGCA_site1057],9.6
4,TACTTCATTCATTTTACACACATATAAACCCTTTTA [CACACA_site3229],10
5,AATATTCAATATAAAGTGCATTATTGTGGACCTAAT,9.79
6,ACTAATACATAAAAAAGTACAAATATGAGTATTAAC [XGTACX_site7281],9.93
7,TATATAGCTAAAAACACACAAATATGTACACATAAA [CACACA_site7665],9.88
8,AAATATACATACATATGTACATATATATATATATAT [XGTACX_site8202],9.86
9,ATAGTTAAAAAAAAAAAAAAAAAAAAAAGAGAGAGA [CACACA_negctrl_site1307],9.44
10,ACAATAAAGAACAGTATGCACTTTTATGCATGCGTA,9.68
11,AAATTATTAAAAAAGTGTACATATTTTTATAATACC [XGTACX_site5610],9.58
12,ATAAGCATACATATTACACACATATAACATCTATAT [CACACA_site7219],9.99
13,GGGTATACCAATATAACACACATATATATATAATAT [CACACA_site450],9.86
14,TTAATCAAATTACTATGTACATAAAACATATAAGAA [XGTACX_site381],9.63
15,TATTTTTTTTCAAAAAAGTTTATTTAGAACTAAATA [XGTACX_negctrl_site487],9.17
16,AAAAAAAAAAAAAGTACACACATACAGATAAATATA [CACACA_site5067],9.98
17,ATAAATTGATTCAACACACACATATGTAGGAAGTTA [CACACA_site3253],9.97
18,TTTTTTAAATTGGTAGTGCAATATGATTGAACAAAA [GTGCAC_site9715],9.36
19,AATACAATAAAAAAAAGTACACATGTATAAAAAATT [XGTACX_site8270],10.4

row,Sequence,gcPBM binding intensity (ln)
1,TGTTATCAGAAAGCACGTACATATAATTATATATTC [XGTACX_site4188],9.57
2,AATATATCTTATTTAACACACACAAAGAAAATAGAA [CACACA_site9242],10.4
3,TATATATATATACATACATGCATATATATATATATA [TGCATGCA_site513],9.48
4,ATGAATTAATCTAATCGTACAATAAGCATTATTATA [XGTACX_site2571],9.52
5,GAATATGTAAAGAAAGGTACACATGAAAATATGTGT [XGTACX_site446],9.79
6,TGTACCTACAAAATATGATATATTTTTATAAATTGT [XGTACX_negctrl_site498],9.44
7,TAGAAAATCAGTTAAACACACACATAAAAAAAAAAA [CACACA_site8933],10.7
8,TTCTTATTTGTACTAGTGCAATAGAAAATAAATAAA [GTGCAC_site9731],9.35
9,TATATAATATATATATGTACACATTTGCAAACAATG [XGTACX_site6941],9.7
10,CTAATTCGTATATGCTGTACCTTTTTCTTACGACTA [XGTACX_site4392],10
11,ATATGGAATGATCATAGTACATAATTTAAAATTTTA [XGTACX_site3568],9.63
12,ACCCTATTTATATATACACACACATATATAAATAAA [CACACA_site8980],10
13,AACATATATAATATTTGTACTTATATACAAAATATG [XGTACX_site7502],9.64
14,TATTTTTTCTTAAACACACACATATAGATTTATAAC [CACACA_site7354],10
15,TGTCCTTATTGGCACACACACATATAAGAAATTTAA [CACACA_site5724],9.97
16,TTTTTTAAAGCCTGTTCATCATCCTTACCTATCAAC [GTGCAC_negctrl_site452],9.49
17,AAAGTATACAATGACGCATGCATATATATATACATA [TGCATGCA_site429],9.83
18,ATTTATTTATCTAGCTATTCACCATTTTCTTTTGTT [CACACA_negctrl_site1259],9.8
19,ATAGGATGTTTGCACTGTACCAAAAAATGAGCTGCA [XGTACX_site2825],9.59

# From the supplement of paper PMC11417369
